{
  "source": "the supplement of paper PMC4723716",
  "note": "In all, about 3,600 compounds were measured (“viability index relative to DMSO control”: median about 0.81, lowest 2% from about 0.13 on). The list shows a part of the results.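 Further: 384-well serum-free SaLSSA: MitoTracker Red CMXRos staining with saponin lysis, high-content imaging, treated-well particle count divided by plate-mean count of DMSO wells.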",
  "data": [
    {"tested_on": "Plasmodium falciparum NF54 stage V gametocytes", "assay": "viability index relative to DMSO control (fraction); higher = less gametocyte killing", "conditions": "1.25 µM, incubation time: 72 h", "values": [
      {"smiles": "CCc1[nH]nc2c1C(Cc1ccccc1)C(C#N)=C(N)O2", "note": "(stereo not drawn)", "viability index": 0.951},
      {"smiles": "CCN(CC)CCCC(C)Nc1cc(C=Cc2ccc([N+](=O)[O-])cc2)nc2cc(OC)ccc12", "note": "(stereo not drawn)", "viability index": 0.747},
      {"smiles": "CCCCC(=O)NC(c1cccc([N+](=O)[O-])c1)c1ccc2cccnc2c1O", "note": "(stereo not drawn)", "viability index": 0.56},
      {"smiles": "c1ccc(Nc2nc(-c3ccccn3)cs2)nc1", "viability index": 0.0653},
      {"smiles": "Cc1ccc2c(c1)C(C)(c1ccc(Cl)cc1)CC(C)(C)N2C(=O)COc1ccc2ccccc2c1", "note": "(stereo not drawn)", "viability index": 0.826},
      {"smiles": "C=CCc1cc(C=c2sc3n(c2=O)C(c2ccc(Cl)cc2)C(C(=O)OCC)=C(C)N=3)cc(OC)c1O", "note": "(stereo not drawn)", "viability index": 0.721},
      {"smiles": "Cc1nc2ccc(NC(=O)C3CC3)cc2c(=O)n1Cc1ccc(Cl)cc1", "viability index": 1.05},
      {"smiles": "CC(=O)N(C1=C(N2CCCC2)C(=O)c2ccccc2C1=O)c1ccccc1C", "viability index": 0.78},
      {"smiles": "COc1cc(C=C(C#N)c2nc3ccccc3[nH]2)ccc1OCc1ccccc1Cl", "viability index": 0.678},
      {"smiles": "O=C1C2C(C(=O)N1Cc1ccccc1)C1(c3ccccc3)C(=O)C2(c2ccccc2)C(c2ccccc2)=C1c1ccccc1", "note": "(stereo not drawn)", "viability index": 0.792},
      {"smiles": "COc1cc(/C=C2\\SC(c3ccc(C)cc3)=NC2=O)cc(OC)c1OC", "viability index": 0.811},
      {"smiles": "O=C(CN1CCCC1)Nc1nc(-c2ccc3c(c2)CCN3S(=O)(=O)c2ccccc2)cs1", "viability index": 0.971},
      {"smiles": "Clc1ccc(-c2cn3c([n+]2-c2ccccc2)CCC3)cc1", "viability index": 0.687},
      {"smiles": "O=C(Nc1ccc(-c2nc3ccc(-c4nc5ccc(NC(=O)c6cccc7ccccc67)cc5[nH]4)cc3[nH]2)cc1)c1cccc2ccccc12", "viability index": 0.171},
      {"smiles": "COc1cc(C(=O)Nc2nnc(-c3ccccc3)o2)cc(OC)c1OC", "viability index": 0.81},
      {"smiles": "Cc1ccc2c(c1)-c1c(ssc1=S)C(C)(C)N2C(=O)c1ccco1", "viability index": 0.703},
      {"smiles": "CCOC(=O)Cn1cnc2c(nnn2Cc2ccc(F)cc2)c1=O", "viability index": 0.581},
      {"smiles": "COc1ccc(C=CC(=O)Nc2ccncc2)cc1OC", "viability index": 0.928},
      {"smiles": "O=C1NC(=S)NC1=Cc1ccc(C(F)(F)F)cc1", "viability index": 1.01},
      {"smiles": "Cc1ccc(C2CC(=O)N3CN(c4ccc(Br)cc4)CSC3=C2C#N)o1", "note": "(stereo not drawn)", "viability index": 0.843},
      {"smiles": "Cc1cc(Cl)ccc1NC(=O)c1ccccc1[N+](=O)[O-]", "viability index": 1.12},
      {"smiles": "COc1ccc(NC(=O)CCCCCn2c(SCC(=O)c3ccccc3)nc3ccsc3c2=O)cc1", "viability index": 0.784},
      {"smiles": "O=C1C(Nc2ccc(Cl)cc2)=C(N2CCCCC2)C(=O)c2ccccc21", "viability index": 0.177},
      {"smiles": "COc1cccc(OCC(=O)NN=C(C)CC(=O)NCc2ccco2)c1", "viability index": 0.793},
      {"smiles": "COc1ccc(-c2cnc3ccc(NCc4cccc(Cl)c4)nn23)cn1", "viability index": 0.744},
      {"smiles": "CCCCCc1nnc(NC(=O)c2ccc(-c3ccc(OC)cc3)cc2)s1", "viability index": 0.873},
      {"smiles": "COC(=O)c1c(-c2c(F)cccc2Cl)noc1C=CNc1ccccc1", "viability index": 0.877},
      {"smiles": "COc1ccc(C2C3=C(CC(C)(C)CC3=O)Nc3n[nH]c(C)c32)cc1", "note": "(stereo not drawn)", "viability index": 1.07},
      {"smiles": "CCOC(=O)C1=C(C)NC2=C(C(=O)CC(c3ccc(OC)cc3)C2)C1c1ccsc1", "note": "(stereo not drawn)", "viability index": 0.882},
      {"smiles": "O=C(O)c1cccc(N2N=C(c3ccccc3)CC2=O)c1", "viability index": 0.822},
      {"smiles": "c1ccc(Cc2cc[n+](Cc3ccccc3)cc2)cc1", "viability index": 0.667},
      {"smiles": "Fc1ccc(-c2cn3c([n+]2-c2ccccc2)SCC3)cc1", "viability index": 0.786},
      {"smiles": "CCOCCCN(C(=O)C(F)(F)F)C(C(=O)NC1CCCCC1)c1ccncc1", "note": "(stereo not drawn)", "viability index": 0.83},
      {"smiles": "O=[N+]([O-])c1cc(Br)c(Nc2ccccc2)c([N+](=O)[O-])c1", "viability index": 0.0522},
      {"smiles": "Cc1occc1C(=O)NN=CC(Br)=Cc1ccccc1", "viability index": 0.826},
      {"smiles": "CCN(CC)CCCNc1nc2cc(OC)c(OC)cc2c2nc(-c3ccccc3)nn12", "viability index": 0.727},
      {"smiles": "CCOC(=O)c1ccc2nc(C)cc(Nc3ccc(N4CCCCC4)cc3)c2c1", "viability index": 0.749},
      {"smiles": "CCC(SC1=Nc2ccccc2C2=NC(C(C)C)C(=O)N12)C(=O)Nc1cccc(C)c1", "note": "(stereo not drawn)", "viability index": 0.98},
      {"smiles": "COc1ccc(C2Nc3ccc4ccccc4c3C3=C2C(=O)CC(C)(C)C3)cc1Br", "note": "(stereo not drawn)", "viability index": 0.795},
      {"smiles": "O=C1C(=Nc2cccc(C(F)(F)F)c2)c2ccccc2N1CN1CCc2ccccc2C1", "viability index": 0.916},
      {"smiles": "COc1ccccc1NC(=S)N1CCN(c2ccc([N+](=O)[O-])cc2)CC1", "viability index": 0.318},
      {"smiles": "CCOC(=O)c1cnc2ccc(OC)cc2c1O", "viability index": 1.05},
      {"smiles": "c1ccc2cc3c(Nc4ccc(N5CCOCC5)cc4)ccnc3cc2c1", "viability index": 0.79},
      {"smiles": "CC(OC(=O)c1ccccc1N1C(=O)C2C3C=CC(C4CC34)C2C1=O)C(=O)c1ccccc1", "note": "(stereo not drawn)", "viability index": 1.02},
      {"smiles": "Cc1cccc(N2CCN(c3nc4ccccc4c4nnc(C)n34)CC2)c1C", "viability index": 1.22},
      {"smiles": "CCNC(=O)[C@@H]1C[C@@H](NC2C3CC4CC(C3)CC2C4)CN1Cc1cccc(OC)c1OC", "note": "(stereo partly drawn)", "viability index": 0.962},
      {"smiles": "Cc1ccc(C)c2[nH]c(=O)c(CN(Cc3ccccc3)C(=S)NCCCN(C)C)cc12", "viability index": 0.964},
      {"smiles": "CN(C)c1ccc(C=C2SC(=Nc3ccccc3)NC2=O)cc1", "viability index": 0.415},
      {"smiles": "COc1ccccc1CNC(=O)CCC1N=C2c3ccccc3N=C(SCC(=O)Nc3ccc(F)cc3)N2C1=O", "note": "(stereo not drawn)", "viability index": 1.09},
      {"smiles": "COc1cc(C(=O)N2CCN(Cc3cccc(Br)c3)CC2)cc(OC)c1OC", "viability index": 0.918},
      {"smiles": "COc1ccc(N2CCN(C(=O)C3=C(C)C(=O)OC34CCCCC4)CC2)cc1", "viability index": 0.884},
      {"smiles": "CCN1CCN(Cc2ccc(N(CC)CC)cc2)CC1", "viability index": 1.12},
      {"smiles": "COc1ccc(C2CC(=O)C3=C(C2)NC(C)=C(C(=O)OC(C)C)C3c2ccccc2OC)cc1OC", "note": "(stereo not drawn)", "viability index": 0.625},
      {"smiles": "CCCCNC1=CC(=O)C(=O)c2ccccc21", "viability index": 0.402},
      {"smiles": "O=C(CSc1nccn1C1CCCC1)Nc1cc(C(F)(F)F)ccc1Cl", "viability index": 0.791},
      {"smiles": "COc1cccc(-c2ccc(O)c(CN(C)CCc3ccc(OC)c(OC)c3)c2)n1", "viability index": 0.933},
      {"smiles": "CCN1C(=Cc2cccc[n+]2C)Sc2ccc(OC)cc21", "viability index": 0.961},
      {"smiles": "COc1ccc(C=Cc2cc[n+](C)cc2)cc1OC", "viability index": 0.957}
    ]}
  ]
}
